Test results as given in patent US8242166B2, “C(10) ethyl ester and C(10) cyclopropyl ester substituted taxanes” (Florida State University Research Foundation, Inc., priority 2008, dated 2012).

What was measured:
Sprague-Dawley rats [1] = conditions: rat, in vivo
Sprague-Dawley rats [2] = test system: Sprague-Dawley rats

CC(=O)O[C@@]12CO[C@@H]1C[C@H](O)[C@@]1(C)C(=O)[C@H](OC(=O)C3CC3)C3=C(C)[C@@H](OC(=O)[C@H](O)[C@@H](NC(=O)OC4CCC4)c4cccs4)C[C@@](O)([C@@H](OC(=O)c4ccccc4)C12)C3(C)C (some centres unmarked) [Compound 18365]
Day 10 BW (recovery), points toward toxicity score (Sprague-Dawley rats [1]): 0
Day 10 PLT (recovery), points toward toxicity score (Sprague-Dawley rats [1]): 0
Day 10 WBC (recovery), points toward toxicity score (Sprague-Dawley rats [1]): 0

CCC(=O)O[C@H]1C(=O)[C@@]2(C)C([C@H](OC(=O)c3ccccc3)[C@]3(O)C[C@H](OC(=O)[C@H](O)[C@@H](NC(=O)OC4CCCC4)c4cccs4)C(C)=C1C3(C)C)[C@]1(OC(C)=O)CO[C@@H]1C[C@@H]2O (some centres unmarked) [Compound 18926]
Day 10 BW (recovery), points toward toxicity score (Sprague-Dawley rats [1]): 0
Day 10 PLT (recovery), points toward toxicity score (Sprague-Dawley rats [1]): 0
Day 10 WBC (recovery), points toward toxicity score (Sprague-Dawley rats [1]): 0

CCC(=O)O[C@H]1C(=O)[C@@]2(C)C([C@H](OC(=O)c3ccccc3)[C@]3(O)C[C@H](OC(=O)[C@H](O)[C@@H](NC(=O)OC4CCC4)c4cccs4)C(C)=C1C3(C)C)[C@]1(OC(C)=O)CO[C@@H]1C[C@@H]2O (some centres unmarked) [Compound 19244]
axonal degeneration (Sprague-Dawley rats [2]; 12 mg/kg IV): less than the docetaxel control
Neuro Tox (axonal degeneration score) (Sprague-Dawley rats [2]; 12 mg/kg IV, individual rats): 0 (no degen axons)
Day 10 BW, recovery score points (Sprague-Dawley rats [2]; Sprague-Dawley, rat, in vivo): 0
Day 10 PLT, recovery score points (Sprague-Dawley rats [2]; Sprague-Dawley, rat, in vivo): 0
Day 10 WBC, recovery score points (Sprague-Dawley rats [2]; Sprague-Dawley, rat, in vivo): 0
Day 10 BW (recovery), points toward toxicity score (Sprague-Dawley rats [1]): 0
Day 10 PLT (recovery), points toward toxicity score (Sprague-Dawley rats [1]): 0
Day 10 WBC (recovery), points toward toxicity score (Sprague-Dawley rats [1]): 0
